Experimental data reported in PubChem BioAssay AID1476 (National Center for Advancing Translational Sciences (NCATS), 2009).
Among all 200,000 compounds or so, about 4,500 (2.2%) were called active. Inconclusive means that the source gave no clear call. Such entries were picked first, then a sample of the others. The call rests on the fitted dose curve; in most records, active means well fitted inhibition curve with a large enough effect; inconclusive means small, poorly fitted or top-dose-only effect, or effect the other way; inactive means flat fitted curve, though single readings scatter. Where the call is inconclusive, the potency comes from a doubtful curve fit.

biological target: Cruzipain (Trypanosoma cruzi) (UniProt P25779); assay: qHTS Assay for Promiscuous and Specific Inhibitors of Cruzain (without detergent); details: purified cruzain, Z-FR-AMC fluorescence, no detergent; further: nearly all actives have a fitted effect of over 40% in size;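 on max response, negative = inhibition: plate controls were enzyme without inhibitor for no effect and buffer without enzyme for full effect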
Summary of the method: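 Purified cruzain at 1.5 nM, pre-incubated 15 min with compound at room temperature in 100 mM sodium acetate pH 5.5, 5 mM DTT, 0.00005% Triton X-100. Reaction started with 2 uM Z-FR-AMC; AMC fluorescence increase over 60 s gives rate.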
Potency means the concentration at half of the fitted maximal effect; tags describe the fitted curve by direction and shape.

Sequence of UniProt P25779 (P25779 whole entry, looked up): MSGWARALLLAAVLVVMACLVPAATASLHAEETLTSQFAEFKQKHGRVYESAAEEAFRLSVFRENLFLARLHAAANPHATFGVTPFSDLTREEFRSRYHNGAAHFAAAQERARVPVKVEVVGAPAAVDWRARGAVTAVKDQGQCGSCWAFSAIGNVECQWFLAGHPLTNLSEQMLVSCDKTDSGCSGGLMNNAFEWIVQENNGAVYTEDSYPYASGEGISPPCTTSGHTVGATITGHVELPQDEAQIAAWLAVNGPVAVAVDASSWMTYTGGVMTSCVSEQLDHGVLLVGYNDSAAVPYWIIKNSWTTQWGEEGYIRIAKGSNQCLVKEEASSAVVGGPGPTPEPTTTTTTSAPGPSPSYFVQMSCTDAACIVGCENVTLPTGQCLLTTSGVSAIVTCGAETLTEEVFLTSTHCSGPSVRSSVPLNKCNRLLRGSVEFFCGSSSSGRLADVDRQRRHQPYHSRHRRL

| SMILES | Potency | max response, negative = inhibition |
| --- | --- | --- |
| CCOC(=O)c1cnn(-c2nc(C)nc3sc4c(c23)CCC4)c1N | inconclusive: 39.8 µM [activator, single point] | – |
| COc1ccc(Cl)cc1C(=O)NNC(=S)NC(=O)c1cc(-c2ccc(Cl)cc2)nc2ccccc12 | active: 3.16 µM | – |
| Cc1ccc(CN2C(=O)CCC2C(=O)N2CCN(c3ccc(F)cc3)CC2)cc1 (stereo not drawn) | inconclusive: 31.6 µM [activator, single point] | – |
| Cc1nn(-c2ccc(N3CCOCC3)nn2)c(C)c1CCC(=O)NCc1ccc(OC(C)C)cc1 | – | inactive: 3.14% |
| Cc1c(C2=CCN(S(=O)(=O)c3ccc(CC(C)C)cc3)CC2)c2ccccc2n1CC(=O)N1CCCC1 | – | inactive: 18.4% |
| CSc1nc2ccccc2n1CC(=O)Nc1cc(C(F)(F)F)ccc1N1CCOCC1 | inconclusive: 39.8 µM [activator, single point] | – |
| CCOc1ccccc1C(=O)Nc1ccc2c(c1)N(C)C(=O)c1ccccc1S2 | inconclusive: 6.31 µM [activator, single point] | – |
| NC(=O)CNC(=O)[C@@H]1CC2(CC(c3ccc(Cl)cc3)=NO2)CN1C(=O)c1ccccc1 (stereo partly drawn) | inconclusive: 39.8 µM [activator, single point] | – |
| CC(C)c1ccc(S(=O)(=O)/N=C2/C=C(Sc3ncn[nH]3)C(=O)c3ccccc32)cc1 | active: 12.6 µM | – |
| N#CCCn1c(=O)c(-c2ccccc2)nc2cnc(N3CCOCC3)nc21 | – | inactive: 9.06% |
| Cc1ccc(C(C)C)c(OCC(=O)N2CCC(c3nc4ccccc4o3)CC2)c1 | inconclusive: 20 µM [activator, partial curve] | – |
| COc1ccccc1NC(=O)c1nnn(CC(=O)Nc2ccccc2)c1N | inconclusive: 31.6 µM [inhibitor, single point] | – |
| CCOc1ccc(CCNC(=O)Cn2c(-c3nonc3N)nc3ccccc32)cc1OCC | inconclusive: 12.6 µM [activator, partial curve] | – |
| CC(=O)COc1cc(C)cc2oc(=O)c(C)c(C)c12 | inconclusive: 25.1 µM [activator, single point] | – |
| COc1ccc(C(=O)N(Cc2ccc(C(C)C)cc2)C2CCS(=O)(=O)C2)cc1 (stereo not drawn) | inconclusive: 39.8 µM [activator, single point] | – |
| COC(=O)c1cccc(C23CC4(C2)[C@H](CN(CC2CCCCC2)[C@@H]4c2ccccc2)C3c2ccc(C(F)(F)F)cc2)c1 (stereo partly drawn) | inconclusive: 31.6 µM [inhibitor, single point] | – |
| COc1cc(C=O)c([N+](=O)[O-])cc1OC | – | inactive: 0.892% |
| Cc1ccc2nc(N/N=C/c3ccccc3C#N)nc(-c3ccccc3)c2c1 | inconclusive: 31.6 µM [inhibitor, single point] | – |
